Measurements as given in article PMC4336329 (PLoS ONE, 2015).
About 14,000 (4.5%) of roughly 310,000 compounds showed an effect of 50% or more. The effect is printed as a negative number. The list shows a part of the results.

These compounds were tested against human ether-à-go-go-related gene (hERG) potassium channel (human, UniProt Q12809) (assay: primary screen, population patch clamp on CHO cells stably expressing hERG).
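Also: peak tail current of the secondary pulse compared with the same well before compound.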

human ether-à-go-go-related gene (hERG) potassium channel, sequence (Q12809 whole entry, looked up): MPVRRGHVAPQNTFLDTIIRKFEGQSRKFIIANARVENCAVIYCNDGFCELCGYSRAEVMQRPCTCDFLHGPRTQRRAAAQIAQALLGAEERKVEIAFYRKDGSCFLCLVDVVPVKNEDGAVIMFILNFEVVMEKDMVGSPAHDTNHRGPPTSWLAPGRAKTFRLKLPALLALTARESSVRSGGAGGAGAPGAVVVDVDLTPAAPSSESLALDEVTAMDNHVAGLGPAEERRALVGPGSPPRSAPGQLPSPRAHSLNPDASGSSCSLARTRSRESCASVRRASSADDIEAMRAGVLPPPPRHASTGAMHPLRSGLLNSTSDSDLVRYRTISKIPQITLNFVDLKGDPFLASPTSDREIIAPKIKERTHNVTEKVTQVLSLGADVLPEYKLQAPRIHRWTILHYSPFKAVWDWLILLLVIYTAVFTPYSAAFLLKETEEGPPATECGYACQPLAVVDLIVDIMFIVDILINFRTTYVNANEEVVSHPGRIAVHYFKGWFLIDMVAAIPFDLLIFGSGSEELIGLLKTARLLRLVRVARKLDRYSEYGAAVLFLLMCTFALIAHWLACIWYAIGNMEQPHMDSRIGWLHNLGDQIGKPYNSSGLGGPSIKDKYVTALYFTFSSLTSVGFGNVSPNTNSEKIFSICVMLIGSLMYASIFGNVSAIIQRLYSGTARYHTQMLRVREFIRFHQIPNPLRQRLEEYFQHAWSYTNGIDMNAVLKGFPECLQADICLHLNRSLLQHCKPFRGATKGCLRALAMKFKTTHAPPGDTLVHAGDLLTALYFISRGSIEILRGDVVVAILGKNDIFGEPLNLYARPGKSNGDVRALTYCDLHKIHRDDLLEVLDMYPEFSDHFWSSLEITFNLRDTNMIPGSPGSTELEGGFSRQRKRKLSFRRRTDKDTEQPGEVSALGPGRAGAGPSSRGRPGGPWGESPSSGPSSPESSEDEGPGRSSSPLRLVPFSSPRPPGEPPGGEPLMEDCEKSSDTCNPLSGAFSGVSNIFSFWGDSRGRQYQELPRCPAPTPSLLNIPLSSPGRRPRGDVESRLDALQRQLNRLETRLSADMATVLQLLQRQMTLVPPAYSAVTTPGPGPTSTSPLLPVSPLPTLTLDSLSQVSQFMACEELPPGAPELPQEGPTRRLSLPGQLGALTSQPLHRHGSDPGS

Row | SMILES | hERG current change (%, negative = inhibition) at 10uM [%]
1 | COC(=O)c1ccccc1NC(=O)c1cc(-c2cccs2)on1 | -0.963
2 | Fc1ccccc1C1c2cccn2CCN1C(=S)Nc1cccc(Br)c1 (stereo not shown) | 12.9
3 | Cc1ccc(S(=O)(=O)c2nc(-c3ccccc3Cl)oc2NCCCN2CCOCC2)cc1 | -49.8
4 | COc1ccc(-c2noc(=O)[nH]2)cc1 | -0.759
5 | O=C(Nc1cccc([N+](=O)[O-])c1)c1cc(S(=O)(=O)N2CCOCC2)cs1 | 15.1
6 | CN(Cc1ccccc1)C(=O)Nc1ccccc1 | 7.49
7 | COc1ccc(Cl)cc1C(=O)NC(=S)Nc1ccccc1N1CCOCC1 | 10.2
8 | O=C(CSCc1cc(=O)n2nc(C3CC3)sc2n1)Nc1ccc(F)cc1 | 1.78
9 | C=C(C)[C@@H]1CC=C(CN2CCC(N3CCC(C(=O)N4CCCC4)CC3)CC2)CC1 | -82.2
10 | CCOc1ccc(Nc2nc3cc(S(=O)(=O)N(CC)CC)ccc3o2)cc1 | 12
11 | Cc1cc2sc3ccccc3c(=O)c2c(C)c1O | 21.6
12 | COc1cc([C@@H]2c3cc4c(cc3[C@@H](O)[C@H]3COC(=O)[C@H]23)OCO4)cc(OC)c1O[Si](C)(C)C(C)(C)C | 17.8
13 | CCCCn1c(=NC(C)=O)c(C#N)cc2c(=O)n3cccc(C)c3nc21 | -31
14 | COc1cc(OC)cc(C(=O)NCc2ccc3c(c2)OCO3)c1 | 0.0794
15 | COc1ccc([C@@H](C)NC(=O)CCc2nnc(-c3cc(C)on3)o2)cc1 | -1.34
16 | CCc1ccc(/C=N/n2c(C3CCCCC3)n[nH]c2=S)cc1 | 19.6
17 | O=C1CN(/N=C/c2ccc([N+](=O)[O-])o2)C(=O)N1 | 11.8
18 | Cc1sc(NC(=O)C2C3CCC(C3)C2C(=O)O)c(C(N)=O)c1-c1ccc(C(C)(C)C)cc1 (stereo not shown) | -24.3
19 | O=C(Nc1ccccc1)c1nn(-c2ccccc2)c(=O)cc1C(F)(F)F | 10.6
20 | CCC(C)Sc1nnc(CSc2nc3nc(C)cc(C)n3n2)o1 (stereo not shown) | 3.48
21 | Cc1cccc(N(C)C(=O)CN(C)S(=O)(=O)c2ccc3c(c2)c(=O)n(C)c(=O)n3C)c1 | 5.06
22 | COc1ccc(C2C=C(c3ccc(Br)cc3)Nc3nc(NS(C)(=O)=O)nn32)cc1 (stereo not shown) | 4.71

Row | SMILES | hERG current change (%, negative = inhibition) at 10uM [%]
23 | CN(C)C(CNC(=S)Nc1ccc(Cl)cc1)c1cccnc1 (stereo not shown) | 3.03
24 | Cn1c(/C(C#N)=C(\O)c2ccc(Cl)s2)nc2ccccc21 | 16.8
25 | CCN(C(=O)CN1CCN(C)CC1)c1c(N)n(Cc2ccccc2)c(=O)[nH]c1=O | 13.4
26 | CC1CC(C)(C)NC(=S)N1CCC(=O)N1c2ccccc2CC1C (stereo not shown) | 8.95
27 | CCN1CCc2c(OCC(=O)N3N=C(c4cccs4)CC3c3ccc(F)cc3)cccc2C1=O (stereo not shown) | -26
28 | COc1cc(CNn2nnnc2N)cc(Br)c1OCC(=O)NC(C)(C)C | -0.0211
29 | CCc1cccc(CC)c1NC(=O)C1CCN(C(=O)c2ccco2)CC1 | 2.93
30 | COc1ccc(Cn2c(SCC(=O)NCc3ccco3)nc3ccsc3c2=O)cc1 | -38.3
31 | COc1ccc(CCN(C)C2CCCN(S(=O)(=O)c3ccccc3F)C2)cc1OC (stereo not shown) | -64.3
32 | CN(C(=O)c1ccccc1)c1ccc(OCC(=O)NC2CCS(=O)(=O)C2)cc1 (stereo not shown) | 14.5
33 | Cc1ccc(/C([O-])=C(/C(=S)Nc2ccc(SC(F)F)cc2)[n+]2ccccc2)cc1[N+](=O)[O-] | -11.5
34 | COc1ccc(CCNC(=O)C(=O)NCC2CCCN2S(=O)(=O)c2cccs2)cc1 (stereo not shown) | -32.9
35 | Cc1ccc(S(=O)(=O)N2CCN(C(=O)C3Cc4ccccc4CN3C(=O)c3ccco3)CC2)cc1 (stereo not shown) | -7.36
36 | Cc1ccc(S(=O)(=O)Nc2ccncc2)c(C)c1.Cl | 12
37 | O=c1c(Cl)c(NCc2ccc(F)cc2Cl)cnn1C12CC3CC(CC(C3)C1)C2 | 16.3
38 | Cc1ccccc1C(=O)N1CCC(C(=O)Nc2cccc(F)c2)CC1 | -3.49
39 | O=C(N/N=C/c1c[nH]c2ccccc12)c1ccn(Cc2ccc(Cl)cc2Cl)n1 | 12.2
40 | Cc1ccc(C(=O)NCC(=O)OC(C)C(=O)Nc2ccc(N(C)C)cc2)cc1C (stereo not shown) | -4.22
41 | Cc1cc(C(=O)CN2C(=O)NC3(CCCCC3)C2=O)c(C)n1-c1ccc2c(c1)OCO2 | -56.4
42 | CC1(C)Cc2c(C#N)c(SCC(=O)c3ccccc3)nc(N3CCOCC3)c2CO1 | -10.9
43 | COCCNC(=O)CN(C(=O)c1ccc(N2CCCC2)nc1)c1ccc(F)c(Cl)c1 | 8.46
